Experimental data taken from the supplement of paper PMC11125491.
± gives the standard deviation of the averaged measurements. Growth of baker's yeast expressing single-residue variants of Pneumocystis jirovecii dihydrofolate reductase in 8.8 or 44 µM methotrexate (about 75% and 90% inhibition of the wild type). Selection coefficient per generation; 0 = like wild type, above 0 = less sensitive, below 0 = more sensitive or loss of function. No active / inactive call per row; the paper calls resistant above 0.220 (8.8 µM) or 0.243 (44 µM) together with a significance test. At 44 µM about 15% of codons end with one read or none, so the lowest values are floors (replicate rank correlation 0.74; 0.94 at 8.8 µM).

B1: UniProt A0EPZ9; numbered along this chain (parent)
chain: MDWQKSLTLIVALTLSRGIGLKNDLPWKLKSDMMFFSRVTSGLLVTRSTGQMNVVLMGRKTWESLPAHSRPLKNRINVVISRQEVLDLGGGAYHARSLDDALALLSQIYDSTSKIQLNRVFVIGGGELCKAAMEHSRLNRIIATVIHNEVDCDVFFPIDFRSSQSCLPWRKQDHSVLEAWVGSKVPQGKINENGFIYEFEMWIRDI

Variants of: B1
Assay: selection coefficient against synonymous wild-type codons (log2 per generation); higher = faster growth than wild type
Settings: with Saccharomyces cerevisiae carrying the variant on a plasmid
Description: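 Pooled growth of yeast carrying single-residue variants of P. jirovecii dihydrofolate reductase (own DFR1 gene intact), two passages at 30 °C, three cultures, sequenced before and after. Codons with under 15 starting reads are left out; codons of one change are averaged.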

Variant	selection coefficient against synonymous wild-type codons (log2) (methotrexate 8.8 µM)	selection coefficient against synonymous wild-type codons (log2) (methotrexate 44 µM)
V181N	0.0483 ± 0.1	-0.132 ± 0.0062
V181P	-0.566 ± 0.19	-0.0676 ± 0.47
V181Q	0.0216 ± 0.084	0.0111 ± 0.11
V181R	-0.0101 ± 0.074	-0.0342 ± 0.081
V181S	0.132 ± 0.058	0.0867 ± 0.081
V181T	0.0631 ± 0.057	0.0677 ± 0.15
V181W	-0.143 ± 0.047	-0.193 ± 0.15
V181Y	-0.0599 ± 0.075	-0.111 ± 0.14
G182A	-0.184 ± 0.061	-0.109 ± 0.14
G182C	-0.262 ± 0.078	-0.333 ± 0.14
G182D	-0.00144 ± 0.011	-0.0255 ± 0.059
G182E	-0.147 ± 0.046	-0.115 ± 0.049
G182F	-0.416 ± 0.036	-0.4817 ± 0.0045
G182H	-0.235 ± 0.12	-0.305 ± 0.044
G182I	-0.494 ± 0.16	-0.27 ± 0.038
G182K	-0.0959 ± 0.025	-0.11 ± 0.031
G182L	-0.409 ± 0.096	-0.388 ± 0.058
G182M	-0.273 ± 0.017	-0.313 ± 0.17
G182N	-0.0714 ± 0.12	-0.248 ± 0.074
G182P	-0.169 ± 0.063	-0.172 ± 0.11
G182Q	-0.0319 ± 0.036	0.0988 ± 0.11
G182R	-0.17 ± 0.068	-0.179 ± 0.28
G182S	-0.18 ± 0.046	-0.195 ± 0.11

Variant	selection coefficient against synonymous wild-type codons (log2) (methotrexate 8.8 µM)	selection coefficient against synonymous wild-type codons (log2) (methotrexate 44 µM)
G182T	-0.233 ± 0.092	-0.326 ± 0.057
G182V	-0.369 ± 0.042	-0.452 ± 0.089
G182W	-0.46 ± 0.096	-0.301 ± 0.42
G182Y	-0.434 ± 0.097	-0.138 ± 0.019
S183A	-0.0351 ± 0.021	-0.148 ± 0.17
S183C	-0.0479 ± 0.037	-0.14 ± 0.044
S183D	0.0276 ± 0.026	-0.0841 ± 0.11
S183E	-0.0406 ± 0.11	-0.0698 ± 0.079
S183F	-0.251 ± 0.058	-0.26 ± 0.23
S183G	-0.000876 ± 0.028	-0.047 ± 0.074
S183H	-0.0523 ± 0.042	-0.16 ± 0.068
S183I	-0.331 ± 0.028	-0.368 ± 0.075
S183K	0.102 ± 0.02	-0.0281 ± 0.16
S183L	-0.334 ± 0.11	-0.339 ± 0.12
S183M	-0.304 ± 0.15	-0.351 ± 0.1
S183N	-0.0558 ± 0.077	-0.07 ± 0.015
S183P	-0.148 ± 0.089	-0.319 ± 0.12
S183Q	-0.0683 ± 0.04	-0.0632 ± 0.064
S183R	-0.0166 ± 0.042	-0.122 ± 0.18
S183T	-0.0138 ± 0.037	-0.128 ± 0.1
S183V	-0.217 ± 0.076	-0.273 ± 0.15
S183W	-0.364 ± 0.058	-0.331 ± 0.046
S183Y	-0.239 ± 0.035	-0.412 ± 0.03

Variant	selection coefficient against synonymous wild-type codons (log2) (methotrexate 8.8 µM)	selection coefficient against synonymous wild-type codons (log2) (methotrexate 44 µM)
K184A	-0.0829 ± 0.041	-0.205 ± 0.075
K184C	-0.145 ± 0.065	-0.253 ± 0.21
K184D	-0.00636 ± 0.032	-0.123 ± 0.054
K184E	-0.0148 ± 0.023	-0.0139 ± 0.043
K184F	-0.338 ± 0.079	-0.416 ± 0.048
K184G	-0.102 ± 0.025	-0.243 ± 0.14
K184H	-0.125 ± 0.021	-0.0369 ± 0.049
K184I	-0.222 ± 0.053	-0.326 ± 0.027
K184L	-0.179 ± 0.048	-0.305 ± 0.11
K184M	-0.172 ± 0.043	-0.113 ± 0.034
K184N	-0.0247 ± 0.0083	-0.0633 ± 0.18
K184P	0.018 ± 0.021	-0.034 ± 0.081
K184Q	-0.0879 ± 0.038	-0.124 ± 0.035
K184R	-0.132 ± 0.026	-0.116 ± 0.077
K184S	-0.115 ± 0.03	-0.139 ± 0.12
K184T	-0.0697 ± 0.074	-0.0911 ± 0.061
K184V	-0.194 ± 0.069	-0.136 ± 0.14
K184W	-0.32 ± 0.049	-0.388 ± 0.06
K184Y	-0.189 ± 0.058	-0.184 ± 0.029
V185A	-0.0252 ± 0.028	-0.02 ± 0.086
V185C	-0.0593 ± 0.044	-0.177 ± 0.14
V185D	-0.345 ± 0.034	-0.183 ± 0.098
V185E	-0.249 ± 0.018	-0.319 ± 0.079

Variant	selection coefficient against synonymous wild-type codons (log2) (methotrexate 8.8 µM)	selection coefficient against synonymous wild-type codons (log2) (methotrexate 44 µM)
V185F	-0.147 ± 0.082	-0.104 ± 0.12
V185G	-0.261 ± 0.09	-0.223 ± 0.14
V185H	-0.338 ± 0.081	-0.148 ± 0.049
V185I	-0.0931 ± 0.034	-0.144 ± 0.044
V185K	-0.123 ± 0.066	-0.226 ± 0.12
V185L	-0.106 ± 0.043	-0.217 ± 0.098
V185M	-0.0662 ± 0.015	-0.0922 ± 0.052
V185N	-0.296 ± 0.13	-0.263 ± 0.14
V185P	-0.143 ± 0.093	-0.241 ± 0.093
V185Q	-0.209 ± 0.063	-0.229 ± 0.026
V185R	0.0229 ± 0.042	0.0581 ± 0.071
V185S	-0.15 ± 0.078	-0.188 ± 0.12
V185T	-0.122 ± 0.11	-0.172 ± 0.071
V185W	-0.384 ± 0.04	-0.364 ± 0.14
V185Y	-0.222 ± 0.057	-0.143 ± 0.19
P186A	-0.212 ± 0.12	-0.255 ± 0.13
P186C	-0.292 ± 0.1	-0.223 ± 0.15
P186D	-0.185 ± 0.12	-0.109 ± 0.32
P186E	-0.125 ± 0.07	-0.264 ± 0.21
P186F	-0.559 ± 0.18	-0.376 ± 0.038
P186G	-0.226 ± 0.059	-0.293 ± 0.14
P186H	-0.213 ± 0.21	-0.185 ± 0.16
P186I	-0.351 ± 0.15	-0.334 ± 0.021

Variant	selection coefficient against synonymous wild-type codons (log2) (methotrexate 8.8 µM)	selection coefficient against synonymous wild-type codons (log2) (methotrexate 44 µM)
P186K	-0.0229 ± 0.015	-0.0277 ± 0.026
P186L	-0.381 ± 0.062	-0.33 ± 0.11
P186M	-0.356 ± 0.071	-0.328 ± 0.017
P186N	-0.171 ± 0.082	-0.0854 ± 0.18
P186Q	-0.0996 ± 0.054	-0.227 ± 0.12
P186R	-0.114 ± 0.043	-0.0993 ± 0.28
P186S	-0.189 ± 0.066	-0.293 ± 0.12
P186T	-0.197 ± 0.11	-0.269 ± 0.13
P186V	-0.337 ± 0.036	-0.356 ± 0.14
P186W	-0.539 ± 0.12	-0.365 ± 0.1
P186Y	-0.496 ± 0.16	-0.239 ± 0.021
Q187A	-0.072 ± 0.048	-0.0392 ± 0.081
Q187C	-0.0787 ± 0.049	-0.0648 ± 0.037
Q187D	-0.0313 ± 0.0079	-0.174 ± 0.18
Q187E	0.00546 ± 0.028	0.0177 ± 0.051
Q187F	-0.242 ± 0.13	-0.199 ± 0.23
Q187G	-0.0836 ± 0.045	-0.048 ± 0.28
Q187H	-0.0514 ± 0.036	-0.0214 ± 0.074
Q187I	-0.0653 ± 0.082	-0.171 ± 0.081
Q187K	-0.0105 ± 0.058	-0.0435 ± 0.13
Q187L	-0.12 ± 0.047	-0.133 ± 0.13
Q187M	-0.0899 ± 0.077	-0.178 ± 0.16
Q187N	-0.074 ± 0.058	-0.0257 ± 0.058
